# The other results are listed elsewhere or left out.
# Experiments:
# Assay in all cases: glycan array binding signal (z-score within array); higher = stronger binding
# Settings in all cases: glycan notation: IUPAC condensed, linker removed
# [1] = molecular target: Man(a1-2)Man(a1-3)[Man(a1-2)Man(a1-6)]Man(a1-6)[Man(a1-2)Man(a1-2)Man(a1-3)]Man
# How it was run: (§1)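 Columns mapping to the same glycan were averaged after glycan names were converted to IUPAC-condensed notation. The data come from 3228 arrays in the Consortium for Functional Glycomics database, limited to those with an available protein sequence. Binding is reported as a within-array Z-score averaged across arrays of one protein sequence and across linkers.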
# [2] = molecular target: Man(a1-2)Man(a1-3)[Man(a1-2)Man(a1-6)]Man(a1-6)[Man(a1-2)Man(a1-2)Man(a1-3)]Man(b1-4)GlcNAc(b1-4)GlcNAc
# How it was run: as §1
# [3] = molecular target: Man(a1-2)Man(a1-3)[Man(a1-6)]Man(a1-6)[Man(a1-2)Man(a1-3)]Man(b1-4)GlcNAc(b1-4)GlcNAc
# How it was run: as §1
# [4] = molecular target: Man(a1-2)Man(a1-6)[Man(a1-3)]Man(a1-6)[Man(a1-2)Man(a1-2)Man(a1-3)]Man
# How it was run: as §1
# [5] = molecular target: Man(a1-2)Man(a1-6)[Man(a1-3)]Man(a1-6)[Man(a1-2)Man(a1-2)Man(a1-3)]Man(b1-4)GlcNAc(b1-4)GlcNAc
# How it was run: as §1
# Man(a1-3)[Man(a1-6)]Man = molecular target: Man(a1-3)[Man(a1-6)]Man
# How it was run: as §1
# [6] = molecular target: Man(a1-3)[Man(a1-6)]Man(a1-6)[Man(a1-2)Man(a1-3)]Man(b1-4)GlcNAc(b1-4)GlcNAc
# How it was run: as §1
# [7] = molecular target: Man(a1-3)[Man(a1-6)]Man(a1-6)[Man(a1-3)]Man
# How it was run: as §1
# [8] = molecular target: Man(a1-3)[Man(a1-6)]Man(a1-6)[Man(a1-3)]Man(b1-4)GlcNAc(b1-4)GlcNAc
# How it was run: as §1
# [9] = molecular target: Man(a1-3)[Man(a1-6)]Man(b1-4)GlcNAc(b1-4)GlcNAc
# How it was run: as §1
# [10] = molecular target: Man(a1-3)[Man(a1-6)]Man(b1-4)GlcNAc(b1-4)[Fuc(a1-6)]GlcNAc
# How it was run: as §1
# Man(a1-6)Man = molecular target: Man(a1-6)Man
# How it was run: as §1
# Man(b1-4)GlcNAc = molecular target: Man(b1-4)GlcNAc
# How it was run: as §1
# MurNAc(b1-4)GlcNAc = molecular target: MurNAc(b1-4)GlcNAc
# How it was run: as §1
# Neu5Ac(a2-3)Gal = molecular target: Neu5Ac(a2-3)Gal
# How it was run: as §1
# [11] = molecular target: Neu5Ac(a2-3)Gal(b1-3)GalNAc
# How it was run: as §1
# [12] = molecular target: Neu5Ac(a2-3)Gal(b1-3)GalNAc(b1-3)Gal(a1-4)Gal(b1-4)Glc
# How it was run: as §1
# [13] = molecular target: Neu5Ac(a2-3)Gal(b1-3)GalNAc(b1-4)Gal(b1-4)Glc
# How it was run: as §1
# [14] = molecular target: Neu5Ac(a2-3)Gal(b1-3)GalNAc(b1-4)[Neu5Ac(a2-3)]Gal(b1-4)Glc
# How it was run: as §1
# [15] = molecular target: Neu5Ac(a2-3)Gal(b1-3)GalNAc(b1-4)[Neu5Ac(a2-8)Neu5Ac(a2-3)]Gal(b1-4)Glc
# How it was run: as §1
# [16] = molecular target: Neu5Ac(a2-3)Gal(b1-3)GalNAc6S
# How it was run: as §1
# [17] = molecular target: Neu5Ac(a2-3)Gal(b1-3)GlcNAc
# How it was run: as §1
# [18] = molecular target: Neu5Ac(a2-3)Gal(b1-3)GlcNAc(b1-2)Man
# How it was run: as §1
# [19] = molecular target: Neu5Ac(a2-3)Gal(b1-3)GlcNAc(b1-2)Man(a1-3)[GlcNAc(b1-4)][Neu5Ac(a2-3)Gal(b1-3)GlcNAc(b1-2)Man(a1-6)]Man(b1-4)GlcNAc(b1-4)GlcNAc
# How it was run: as §1
# [20] = molecular target: Neu5Ac(a2-3)Gal(b1-3)GlcNAc(b1-2)Man(a1-3)[Neu5Ac(a2-3)Gal(b1-3)GlcNAc(b1-2)Man(a1-6)]Man(b1-4)GlcNAc(b1-4)GlcNAc
# How it was run: as §1
# [21] = molecular target: Neu5Ac(a2-3)Gal(b1-3)GlcNAc(b1-2)[Neu5Ac(a2-3)Gal(b1-3)GlcNAc(b1-4)]Man(a1-6)[Neu5Ac(a2-3)Gal(b1-3)GlcNAc(b1-2)Man(a1-3)]Man(b1-4)GlcNAc(b1-4)GlcNAc
# How it was run: as §1
# [22] = molecular target: Neu5Ac(a2-3)Gal(b1-3)GlcNAc(b1-3)Gal(b1-3)GlcNAc
# How it was run: as §1
# [23] = molecular target: Neu5Ac(a2-3)Gal(b1-3)GlcNAc(b1-3)Gal(b1-4)GlcNAc
# How it was run: as §1
# [24] = molecular target: Neu5Ac(a2-3)Gal(b1-3)GlcNAc(b1-3)GalNAc
# How it was run: as §1
# [25] = molecular target: Neu5Ac(a2-3)Gal(b1-3)GlcNAc(b1-6)GalNAc
# How it was run: as §1
binder,measurement,setting,value
Epa10 (protein) MNEKIFRYLTLLFLFELARSLPVEDKLNIKKVFEKRAVDFTPFAHYPRPEGCSSPPNSVSVGLHMNLYNYPYLYVKPSTKGMFTNDTNSDADGETDGDSAGGIEGRAGQCWNPEYQDPNFPRFGYKQYGEFGASDNVNGDISWDHNEFTEGCKPVLAALPPGYNYPDEITFSNFTMVLSGYFKPKTSGVYKFELKADDFILFNFGAKNAFECCNREESIDNFGPYVAYAMWPNQADQELEVYLFEDSYYPLRLFYNNRDYHSKFKIGFYPPGQTTITFDFDGYLFMLDDTGNECRDSIRYRTVCDDKVVDDTTYSTRYSTSMVPGGGSDVITIYYIRMKCEEEDCLGQWDPINNVCYSPDDCADDGGYWNGQMCDQSCKLEGGIVNPDTGDCDKSCIESGGFLDENGNCDTTCRDDGGMLVEGQCDYQCKEAGGILVGDHCDTTCVDSGGKLNEDGTCDHSCRDQGGQLDENGECDTSCKDSGGMLIEGECDTSCKDEGGQLDDNNECINHCKDQGGIIDENGNCDTSCKDSGGKLDESGACDTSCRDDGGIIDENGNCNTTCRDDGGIIVGDHCDTSCRDAGGILIEDHCDTTCRDSGGKLNEDGTCDHSCRDQGGQLDENGKCDYSCKNGGGKLDEDGNCDMSCKENGGKLDENGDCDLSCKEDGGKLDGNGDCDYSCKEEGGVIDESGNCNTTCKDSGGQIIDGECNYGCIEVGGVVIDGECDTSCIDSGGILDGDGNCDRSCIESGGVLEDGACNTTCRDSGGQLNVDGTCDTSCRDDGGMLVEGQCDYQCKEAGGILEDGECVFPPTSSSTSETSSTTDQSSLQSDDSSMESSSTPMDSSTIESSSSEIITSESESESVPIASSSSEVMTSESESESIPILTSSSEIPIASSSSEIPVASSSSEIIIPESESESVPVASSSSEIPIASSSSEIPVASSSSEIPVASSSSEIIIPESESESIPIESTSSEAVSSRSESDSSYPTPTPTTTTITTWPNPIQPTTSNSSPIVSSSTETPGIAESSSRISDLESSRRTSILGDDRTRTRTTITSTITEDGQIITITTTVTGFVPEPTGETEGNGSDDENPENPIENNTDENEFLDPEFTDDIPDDPAGPEDNGNGPVNPEQGNDNDPVNLEDSGNNGAVNPEQAPVNDEDNGGNDPVNPEQDNNNGPANPGQDSTNGSGNSDQIDNNPPTPEENAGDGNSNGNDPADPSRRTSILGDERTRASPGGTSQPTGANGNVNGNSPGANVNGGGTGNSNNNNNNNNNNNNGNAPNGGDGSNGDANQGPSRRTSLLGDERTRAGQAAPTGGSSPDNGIAGDTSNNGGAIVSQQVDDGGAGSPRRTSILGDVRSRTTLNGEVLNFEGSGVRRAVAGNLALPLMMVGLVFNL,glycan array binding signal (z-score),[1],-0.315
same,glycan array binding signal (z-score),[2],-0.187
same,glycan array binding signal (z-score),[3],-0.255
same,glycan array binding signal (z-score),[4],-0.299
same,glycan array binding signal (z-score),[5],-0.239
same,glycan array binding signal (z-score),Man(a1-3)[Man(a1-6)]Man,-0.194
same,glycan array binding signal (z-score),[6],-0.247
same,glycan array binding signal (z-score),[7],-0.262
same,glycan array binding signal (z-score),[8],-0.168
same,glycan array binding signal (z-score),[9],-0.224
same,glycan array binding signal (z-score),[10],-0.132
same,glycan array binding signal (z-score),Man(a1-6)Man,-0.104
same,glycan array binding signal (z-score),Man(b1-4)GlcNAc,-0.281
same,glycan array binding signal (z-score),MurNAc(b1-4)GlcNAc,-0.283
same,glycan array binding signal (z-score),Neu5Ac(a2-3)Gal,-0.27
same,glycan array binding signal (z-score),[11],-0.305
same,glycan array binding signal (z-score),[12],-0.179
same,glycan array binding signal (z-score),[13],-0.263
same,glycan array binding signal (z-score),[14],-0.243
same,glycan array binding signal (z-score),[15],-0.206
same,glycan array binding signal (z-score),[16],-0.172
same,glycan array binding signal (z-score),[17],-0.234
same,glycan array binding signal (z-score),[18],-0.262
same,glycan array binding signal (z-score),[19],-0.241
same,glycan array binding signal (z-score),[20],-0.142
same,glycan array binding signal (z-score),[21],-0.136
same,glycan array binding signal (z-score),[22],-0.253
same,glycan array binding signal (z-score),[23],-0.213
same,glycan array binding signal (z-score),[24],-0.196
same,glycan array binding signal (z-score),[25],-0.289
